# According to PubChem BioAssay AID2546 (National Center for Advancing Translational Sciences (NCATS), 2010):
# Hit rate of the full screen: of about 310,000 compounds, about 11,000 (3.5%) were called active. The shares of active, inactive and inconclusive entries below differ from those in the screen. The call rests on the fitted dose curve; in most records, active means well fitted inhibition curve with a large enough effect; inconclusive means small, poorly fitted or top-dose-only effect, or effect the other way; inactive means flat fitted curve, though single readings scatter. No potency is given beside an inconclusive call; the fits are too rough.
# Assay: VP16 counterscreen qHTS for inhibitors of ROR gamma transcriptional activity;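 further: Gal4-VP16 expression switched on by copper sulfate through the metallothionein promoter; nearly all actives have a fitted effect of over 50% in size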
# Conditions: Drosophila S2 Gal4-VP16 UAS-luciferase, luminescence, 20 h; activity, negative = inhibition: at 53.6 µM (top of the series)
# On the % scale 0 is the no-effect control and ±100 the full control effect; potency means the concentration at half of the fitted maximal effect; tags describe the fitted curve by direction and shape.
SMILES,Potency,"activity, negative = inhibition"
CCOC(=O)c1c(N)sc(C)c1-c1ccccc1,"inconclusive [inhibitor, single point]",–
CCOC(=O)c1c(CN(C)C)n(-c2ccccc2)c2cc(Br)c(OC)cc12,–,inactive: -14.6%
CC(C)CNC(=S)N1CCN(c2nc(-c3ccc(Cl)cc3)cs2)CC1,"inconclusive [inhibitor, single point]",–
CCOC(=O)c1cnn(-c2ccccc2)c1NC(=O)CN1CCOCC1,–,inactive: -0.842%
O=C(N/N=C/c1ccccc1O)C1CCCC1,active: 0.562 µM,–
CCn1c(=N)n(CC(=O)C23CC4CC(CC(C4)C2)C3)c2ccccc21,active: 8.91 µM,–
CCOc1ccc(OCC)c(NC(=O)CN2CCC(NC(=O)c3cccc(F)c3)CC2)c1,–,inactive: -19.8%
O=C(/C=C/Nc1cccc([N+](=O)[O-])c1)c1cccs1,"inconclusive [inhibitor, full curve]",–
O=C(OCC(=O)N1CCCC1)c1cccc(Br)c1,–,inactive: -2.91%
O=C(Nc1nc2n(n1)C(c1ccc(Cl)cc1)CC(c1ccc(Cl)cc1)N2)c1ccco1 (configuration not stated),active: 3.55 µM,–
Nc1ccc2nc(-c3ccccc3)[nH]c2c1,"inconclusive [inhibitor, single point]",–
Cc1cc(C)cc(NC(=S)N2CCN(c3ccccn3)CC2)c1,"inconclusive [inhibitor, single point]",–
O=C(O)CNC(=O)C1COc2ccccc2O1 (configuration not stated),–,inactive: -18.2%
COc1ccc(S(=O)(=O)/N=C2\C=C(Nc3ccc(O)cc3)C(=O)c3ccccc32)cc1,active: 5.62 µM,–
O=C(NC1CCCCCC1)C1CCC(CNS(=O)(=O)c2ccc(Br)s2)CC1 (configuration not stated),"inconclusive [inhibitor, single point]",–
CN1CCCC1CCNc1ccc2oc3ccccc3c(=O)c2c1 (configuration not stated),"inconclusive [inhibitor, single point]",–
Cc1cc(OCCn2cc(/C(N)=N/O)c3ccccc32)ccc1Cl,"inconclusive [inhibitor, single point]",–
Oc1ccc(-c2csc(Nc3ncccn3)n2)cc1,"inconclusive [inhibitor, full curve, poor fit]",–
Cc1oc2c(c1C(=O)Nc1cccc3ccccc13)CCCC2,–,inactive: 6.01%
C[C@@H]1O[C@H](O[C@@H]2C(O)[C@H](O)[C@@H](CO)O[C@H]2Oc2cc(O)c3c(=O)cc(-c4ccc(O)cc4)oc3c2)[C@H](O)[C@H](O)[C@H]1O (some centres not stated),–,inactive: -10.4%
Cc1cc(/C=N/n2c(COc3ccccc3C)nc3ccccc3c2=O)c(O)c([N+](=O)[O-])c1,active: 35.5 µM,–
COc1ccc(C2N=C(c3ccccc3)NC(c3ccccc3)=N2)cc1,–,inactive: -4.94%
Fc1ccc(-c2nnc(Cc3nnc(-c4ccc(F)cc4)o3)o2)cc1,"inconclusive [inhibitor, partial curve]",–
O=C(Nc1ccc(F)cc1F)Nc1ccc(F)cc1F,"inconclusive [activator, single point]",–
CC(C)[C@@H]1CC[C@@H](C)C[C@H]1OC(=O)C[n+]1cc(-c2ccc(Cl)cc2)n2c1CCCCC2,active: 11.2 µM,–
O=C(COC(=O)c1ccco1)NC1CCCCC1,–,inactive: 15.9%

SMILES,Potency,"activity, negative = inhibition"
COC(=O)c1ccc(C(=O)NC2CCCN(Cc3ccc(Cl)cc3)C2)nc1 (configuration not stated),"inconclusive [inhibitor, single point]",–
S=C(NCCc1ccccc1)N1CCc2ccccc2C1,"inconclusive [inhibitor, single point]",–
COc1cccc(-c2c(C(=O)N/N=C(\C)c3ccc(Cl)s3)nnn2-c2nonc2N)c1,active: 10 µM,–
CC(C)c1nnc(NC(=O)c2nc(S(=O)(=O)Cc3ccccc3F)ncc2Cl)s1,active: 3.55 µM,–
CCOC(=O)C1CCCN(C(=O)c2ccc3c(=O)n(Cc4ccccc4OC)c(=S)[nH]c3c2)C1 (configuration not stated),"inconclusive [inhibitor, single point]",–
O=C(Cn1cnc2ccccc21)Nc1ccc(SC(F)F)cc1,active: 7.94 µM,–
COc1ccc(-c2noc(CCCC(=O)NCC3CCCO3)n2)cc1 (configuration not stated),"inconclusive [inhibitor, partial curve]",–
COc1ccc(CCNCC(O)COc2ccc(OC)cc2C(C)(C)C)cc1 (configuration not stated),"inconclusive [inhibitor, single point]",–
COc1ccc(-c2noc(N3CCC(C(=O)Nc4ccccc4Cl)CC3)n2)cc1,"inconclusive [inhibitor, partial curve]",–
COc1ccc(C(=O)NC(=S)NNC(=O)c2c(-c3ccccc3)noc2C)cc1,active: 5.62 µM,–
CCOC(=O)C1=NN(C(=O)c2ccc(C)cc2)C(O)(c2ccc(Cl)cc2)C1 (configuration not stated),"inconclusive [inhibitor, single point]",–
Cc1cc(C(F)(F)F)nc(Nc2nc(C)c3ccccc3n2)n1,"inconclusive [inhibitor, single point]",–
COc1cc(/C=C(/C#N)c2ccccc2)ccc1Oc1ccc([N+](=O)[O-])cn1,"inconclusive [inhibitor, full curve]",–
Cc1cc2cc(CN(Cc3ccco3)C(=S)NCC3CCCO3)c(=O)[nH]c2cc1C (configuration not stated),"inconclusive [inhibitor, single point]",–
CC(C)c1ccc(NC(=O)c2ccc(Br)o2)cc1,–,inactive: -12.5%
O=C(NCCc1ccccc1)c1ccc(NC(=O)c2cccnc2)cc1,–,inactive: 12.6%
Nc1c(C(O)(C(F)(F)F)C(F)(F)F)cc(C(O)(C(F)(F)F)C(F)(F)F)c2ccccc12,"inconclusive [inhibitor, single point]",–
C=CCOc1c(CNc2ccc(C(=O)O)cc2)cccc1OCC,"inconclusive [inhibitor, full curve]",–
O=[N+]([O-])c1ccc(C=Nc2cccc3ccccc23)s1,"inconclusive [inhibitor, single point]",–
COc1ccc(C2C=C(c3ccc(C)c(C)c3)Nc3ncnn32)c(OC)c1OC (configuration not stated),–,inactive: -1.55%
Cc1cc(C)n2c(Br)c(CSc3nc4ccccc4s3)nc2n1,–,inactive: 26%
COc1ccc(/C=N\NC(=O)c2sccc2C)cc1Cn1nc(C)cc1C,"inconclusive [inhibitor, single point]",–
CCCOc1ccccc1/C=C1/C(=O)ON=C1C,–,inactive: -0.191%
CCOc1ccc(-c2nc(CCl)cs2)cc1,"inconclusive [inhibitor, single point]",–
NC(=O)CSc1nc2c(sc(=S)n2-c2ccccc2)c(=O)[nH]1,–,inactive: 7.84%
O=C(c1ccco1)N1CCC[C@@]2(CCN(c3ccccc3)C2)C1,"inconclusive [activator, single point]",–

SMILES,Potency,"activity, negative = inhibition"
Cc1ccc(NC(=O)c2cccs2)cc1[N+](=O)[O-],–,inactive: 5.46%
Cc1ccc(C)c(NC(=S)c2ccc3ccccc3n2)c1,active: 5.62 µM,–
CCOC(=O)C1=C(c2ccccc2)NC(=O)NC1c1ccc(O)c(Cl)c1 (configuration not stated),–,inactive: 0.849%
COc1ccc(OC)c(-n2c(-c3cccc(C)c3)n[nH]c2=S)c1,–,inactive: -29.4%
CCOC(=O)N1CCN(C(=S)NC(=O)c2ccnn2C)CC1,active: 31.6 µM,–
CC(C)CN(CC(C)C)S(=O)(=O)c1cc([N+](=O)[O-])ccc1N1CCCCCC1,–,inactive: 11.8%
Cc1noc(-c2ccc(C(F)(F)F)cc2)c1NC(=O)Nc1ccc(Cl)cc1,"inconclusive [inhibitor, single point]",–
O=P(COc1ccccc1)(c1ccccc1)c1ccccc1,–,inactive: -5.71%
O=C(Nc1ccc(F)cc1F)c1cc(Cl)sc1Cl,"inconclusive [activator, partial curve]",–
O=C(Nc1nnc(C2CC2)s1)c1cc(Cl)sc1Cl,"inconclusive [inhibitor, single point]",–
COc1ccc(-c2cc3c(nn2)-c2ccccc2C3=O)cc1,"inconclusive [inhibitor, full curve]",–
Fc1ccc(NC(=S)Nc2cccc(Cl)c2)cc1,–,inactive: -10.8%
CC1(C)C2CC=C(/C=N/NC(=O)c3ccccc3O)C1C2 (configuration not stated),"inconclusive [inhibitor, single point]",–
Cn1nc(CC(=O)Nc2ccc3c(c2)CCC3)c2ccccc2c1=O,"inconclusive [inhibitor, partial curve]",–
Cc1nc2sc(C(=O)Nc3ccccc3)c(N)c2c(C)c1[N+](=O)[O-],"inconclusive [activator, full curve, poor fit]",–
O=C(CSc1n[nH]c(-c2ccccn2)n1)Nc1cccc(Cl)c1,active: 2.82 µM,–
O=c1c(-c2ccc(F)c(F)c2)nc2cncnc2n1Cc1ccc(F)cc1,"inconclusive [inhibitor, single point]",–
O=C(O)CC(Cc1ccccc1)C(=O)NCC12CC3CC(CC(C3)C1)C2 (configuration not stated),"inconclusive [inhibitor, single point]",–
Cc1ccsc1/C=N/NC(=O)c1nnn(-c2nonc2N)c1CSc1ccccc1,active: 3.98 µM,–
COc1cc(OC)cc(C(=O)N/N=C\c2ccoc2)c1,–,inactive: -7.54%
S=c1[nH]nc(-c2cc(-c3ccsc3)n[nH]2)n1-c1ccccc1,–,inactive: -4.8%
Cc1ccc(CC(=O)Nc2nnc(-c3ccc(F)cc3)o2)c(C)c1,active: 3.16 µM,–
CCN1CCN(CCNC(=O)c2ccc(/C=C3/Sc4ccccc4N(Cc4cccc(Cl)c4)C3=O)cc2)CC1,"inconclusive [inhibitor, partial curve]",–
Cc1cccc(CNc2nc(-c3ccoc3)nc3ccccc23)c1,–,inactive: 2.82%
CCOC(=O)N1CCC(=NNc2nc3ccccc3s2)CC1,"inconclusive [inhibitor, single point]",–
